Experimental findings from ChEMBL document CHEMBL1201862, “PubChem BioAssay data set” (2004) are described below.

SMILES strings stand for the structures.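 Dose response: 5 concentrations. Exposure: 48 h. Format: 96-well plates. Endpoint: linear interpolation; highest concentration if not reached. GI50 is the concentration that inhibits growth by half.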 Calls of active or inactive are those of the source. No stated cut-off is given here; in the data, active = GI50 up to about 1.1 µM and inactive = higher.

The test system of this assay is NCI-H322M. Description: NCI anticancer screen, dose series, 48 h.
On to `O=C(NCCO)c1ccc(Cl)cc1`, for which the GI50 was inactive: > 100 µM.

Regarding `Sc1nnc(COc2ccc(Cl)cc2)n1-c1ccccc1`, the GI50 is inactive: > 100 µM.

For the compound `C[C@@](Br)(C(=O)O)[C@H](Br)C(=O)O`, the GI50 was inactive: 81.5 µM.

Turning to `O=C(O)CNCCc1ccccc1`, the GI50 was inactive: > 100 µM.

Take `COc1ccccc1N=C(S)Nc1ccccn1`: the GI50 was inactive: > 100 µM.

As for `C[C@]12CC[C@@H]3c4cc(OCC(F)(F)F)c(O)cc4C(=O)C[C@H]3[C@@H]1CC[C@@H]2O`, the GI50 was inactive: 37.5 µM.

Regarding `COc1cc2c3cc1Oc1cc(ccc1O)C[C@@H]1c4c(cc(OC)c(O)c4Oc4ccc(cc4)C[C@@H]3N(C)CC2)CC[N+]1(C)C`, the GI50 is inactive: > 100 µM.

Take `O=C(O)CSc1ncccc1[N+](=O)[O-]`: the GI50 is inactive: > 100 µM.

In the case of `NC1CC(=O)c2c(I)sc(I)c21` (stereo not given), the GI50 was inactive: 23.1 µM.

Turning to `Cc1cccc(/C=N/NC(=S)Nc2ccc(Cl)cc2)n1`, the GI50 is inactive: 5.43 µM.

In the case of `CCCCCCC1=NOC(C(c2cc[nH]c2)N(C)[C@H](C(=O)OC)C(C)C)C1` (stereo not given in full), the GI50 was inactive: > 100 µM.

For `NC(=O)NC(=O)Nc1ccc(Br)cc1`, the GI50 was inactive: > 27.5 µM.

Consider `COc1ccc(-n2c(Cn3nnc(-c4cccnc4)n3)nn(C3OC(COC(=O)c4ccccc4)C(OC(=O)c4ccccc4)C3OC(=O)c3ccccc3)c2=S)cc1` (stereo not given), for which the GI50 was inactive: > 100 µM.

As to `CCOC(=O)c1ccc(NC2Oc3cc4c(cc3C(c3cc(OC)c(OC)c(OC)c3)C2C)OCO4)cc1` (stereo not given), the GI50 was active: 0.543 µM.

As for `COC(=O)Cc1c([C@H]2[C@H](CC(=O)OC)c3ccccc3N2C(=O)C(F)(F)F)[nH]c2ccccc12`, the GI50 is inactive: > 100 µM.

In the case of `Clc1ccccc1C1SCc2nc3ccccc3n21` (stereo not given), the GI50 is inactive: 53.6 µM.

Consider `CN1C(=O)CN(NC(=O)C2=C(O)c3ccc(Br)cc3S(=O)(=O)N2)C1=S`, for which the GI50 was inactive: > 100 µM.

On to `CC(=O)c1c(=O)n(-c2ccc(C)cc2)c(O)c2c(N)n[nH]c12`, for which the GI50 was inactive: > 100 µM.

Take `c1cc(Sc2nc(Sc3ccncc3)nc(Sc3ccncc3)n2)ccn1`: the GI50 is inactive: > 100 µM.

As to `CCOC(=O)/C=C(\C(=O)OCC)n1ccc(N)nc1=O`, the GI50 is inactive: > 100 µM.

On to `Cn1c(=O)oc2cc(C(=S)N3CCC(Cc4ccccc4)CC3)ccc21`, for which the GI50 is inactive: > 100 µM.

For the compound `CC(=O)Nc1ccc2cc3[nH]c4cc(NC(C)=O)ccc4c3nc2c1`, the GI50 was inactive: > 100 µM.

For the compound `CCCCCCCCCCCCCCCCCCNC(=O)C(N)Cc1ccc(OCc2ccccc2)cn1` (stereo not given), the GI50 was inactive: 20.6 µM.

For the compound `O=C(c1ccco1)C1CC(c2ccc3ccccc3c2O)=NN1c1ccc([N+](=O)[O-])cc1[N+](=O)[O-]` (stereo not given), the GI50 was inactive: 22.6 µM.

Regarding `CCCCCC(=O)OCC(=O)[C@H]1[C@H](C)C[C@H]2[C@@H]3C[C@H](F)C4=C/C(=N/OC(=O)c5cccc6c(=O)c7ccccc7[nH]c56)C=C[C@]4(C)[C@H]3[C@@H](O)C[C@@]21C`, the GI50 was inactive: 41.7 µM.

With `COC(=O)Nc1nc2cc(NS(=O)(=O)c3ccc(Cl)cc3)ccc2[nH]1`, the GI50 was inactive: 8 µM.

Consider `CCOP(=O)(OCC)[C@]12C[C@@H](C)C=C[C@H]1COC2=O`, for which the GI50 is inactive: > 100 µM.

With `O=C1CSc2nc3ccccc3n2/C=N\N1`, the GI50 was inactive: > 100 µM.

Consider `O=C1N/N=C\c2ccc(cc2)OCc2cccc(n2)COc2ccc(cc2)/C=N\NC1=O`, for which the GI50 was inactive: > 25 µM.

`Cc1cc(-c2ccc(C(=O)O)[nH]2)on1`: the GI50 was inactive: 62.8 µM.

For `O=C(O)CN1CCSc2ccccc2CN(CC(=O)O)CCSc2ccccc2C1`, the GI50 is inactive: > 100 µM.

For the compound `CCOC(=O)C12CC1(C(=O)OCC)C1CCC2C1` (stereo not given), the GI50 was inactive: > 100 µM.

On to `NC(=O)NNC/C(Cl)=C(\Cl)C(=O)O`, for which the GI50 is inactive: > 100 µM.

In the case of `CCOC(=O)CN1C(=O)NC(C)(c2ccccc2)C1=O` (stereo not given), the GI50 was inactive: > 100 µM.

For `CC(=O)OCC1OC(c2nc3ccccc3s2)=CC(OC(C)=O)C1OC(C)=O` (stereo not given), the GI50 is inactive: > 100 µM.

With `NS(=O)(=O)c1ccc(NCc2nc3ccccc3[nH]2)cc1`, the GI50 was inactive: > 100 µM.

As for `COc1ccc2c(cnc3c4cc(OC)c(OC)cc4ccc23)c1`, the GI50 is inactive: > 100 µM.

Regarding `C=C(C(=O)C(=O)Oc1ccc(Cl)cc1)C(=O)c1ccc(C)cc1`, the GI50 was inactive: > 100 µM.

For `COc1cc2c(OC)cc1CSCc1sc(C)c(c1Br)CSC2`, the GI50 was inactive: > 100 µM.

Turning to `c1ccc2c(c1)CCc1cc3cc4c(nc3nc1-2)-c1ccccc1CC4`, the GI50 is inactive: > 100 µM.

In the case of `CCOC(=O)C12CCC(=O)N1N(C)c1ncccc1N2` (stereo not given), the GI50 was inactive: > 100 µM.

As to `CC1=NN(c2nc(N)nc(/C(C#N)=C\c3ccc([N+](=O)[O-])s3)n2)C(C)(C)C1`, the GI50 is inactive: 12.4 µM.

Regarding `CCCCCCCC(=O)OC[C@H](C[As](=O)(O)O)OC(=O)CCCCCCC`, the GI50 was inactive: 14.1 µM.

For the compound `CCC(C#N)NCc1cccc(CNC(C#N)CC)c1` (stereo not given), the GI50 was inactive: > 100 µM.

As to `CN(C)Cc1[nH]c2ccccc2c1C(=O)c1ccccc1`, the GI50 was inactive: > 100 µM.

As to `CN(C)c1n/c(=N/Cc2ccccc2)ss1`, the GI50 is inactive: > 10 µM.

For `CC1CCC2(CC1)NN=c1s/c(=C\c3ccc(O)cc3)c(=O)n1N2` (stereo not given), the GI50 was inactive: > 100 µM.

For the compound `O=C(c1ccccc1)n1cc(-c2ccccc2)c2c(=O)nc[nH]c21`, the GI50 is inactive: > 100 µM.

Take `O=C1[C@@H]2C(c3ccncc3)=NO[C@@H]2C(=O)N1c1ccc(Cc2ccc(N3C(=O)[C@H]4C(c5ccncc5)=NO[C@H]4C3=O)cc2)cc1`: the GI50 is inactive: > 100 µM.

As to `COC(=O)c1cc(/C=C/C(=O)Cc2ccccc2)cn1S(=O)(=O)c1ccccc1`, the GI50 was inactive: > 100 µM.

With `COc1cc2c3c(c1O)-c1c(ccc(OC)c1OC)CC3N(C)CC2` (stereo not given), the GI50 is inactive: > 100 µM.

On to `CCOC(=O)C1(Br)S(=O)(=O)OCCOS1(=O)=O`, for which the GI50 is inactive: > 100 µM.

As to `O=c1cccccc1NCCCNc1cccccc1=O`, the GI50 was inactive: > 100 µM.

Consider `O=C(NCCO)c1ccc([N+](=O)[O-])cc1`, for which the GI50 was inactive: > 100 µM.

Take `NCCCCNCCCN1CCOC1=O`: the GI50 is inactive: > 100 µM.

As to `N#Cc1c(Nc2ccc(F)cc2)[n+]([O-])c2ccc(Cl)cc2[n+]1[O-]`, the GI50 is inactive: 55 µM.

On to `CSC1=C(C(=O)N(COCC[Si](C)(C)C)c2ccccc2Br)CCC(C(C)(C)C)C1` (stereo not given), for which the GI50 was inactive: 22.5 µM.

For `O=CNC(Cc1c[nH]cn1)C(=O)O` (stereo not given), the GI50 was inactive: > 100 µM.

As to `CCCCCC/C=C\CCCCCCCCCc1c(O)c(OC)cc(O)c1CN(C)C`, the GI50 is inactive: 16.2 µM.

For `COc1ccc(NC(=O)/C(=N/NC(N)=S)C2C(=O)NC(=S)NC2=O)c(OC)c1`, the GI50 was inactive: > 100 µM.

On to `CC(=O)OCC(C)C1=C(O)C(=O)C2(C)C/C=C(/C)CC/C=C(\C)CCC(O)C(C)CCC12` (stereo not given), for which the GI50 was inactive: 16.8 µM.

`O=C(O)C1(Cc2ccc3c(c2)CCC3)Cc2cc3c(cc2C1)CCC3`: the GI50 was inactive: > 100 µM.

On to `O=C(N/C(=C\c1ccccc1)c1nc2ccccc2c(=O)o1)c1ccccc1`, for which the GI50 is inactive: > 100 µM.

For `CCOC(=O)CCC(NC(=O)c1ccc(Nc2nc3cc(C(F)(F)F)ccc3nc2-c2ccccc2)cc1)C(=O)OCC` (stereo not given), the GI50 is inactive: 23.6 µM.

As for `OC/C=C(\I)CCCOCOCc1ccccc1`, the GI50 was inactive: > 100 µM.

In the case of `N=C(N)c1ccc(C(NC(=O)CNS(=O)(=O)c2ccc3ccccc3c2)P(=O)(Oc2ccccc2)Oc2ccccc2)cc1` (stereo not given), the GI50 is inactive: 39.3 µM.

Regarding `O=C1C2=C(C3=NCCc4c[nH]c1c43)c1c(Br)cc(Br)cc1CCN2`, the GI50 was inactive: 1.53 µM.

As for `COC(=O)/C=C1/CCC(C(=O)OC)N1` (stereo not given), the GI50 was inactive: > 100 µM.

`N#CC1CNC(N)NC1N` (stereo not given): the GI50 was inactive: > 100 µM.

In the case of `COc1ccc(C2C=C(c3ccc4c(c3)OCO4)Oc3c2c(=O)oc2ccccc32)cc1OC` (stereo not given), the GI50 is active: 0.706 µM.

Take `CS(=O)(=O)c1n[nH]c2nc(O)nc(O)c12`: the GI50 was inactive: > 10 µM.

As for `C#CCSc1cnc2ccccc2c1Sc1c[nH]c2ccccc2c1=O`, the GI50 is inactive: 19.9 µM.

On to `O=C1CSSCC(=O)Nc2ccccc2N1`, for which the GI50 is inactive: > 100 µM.

Regarding `N#Cc1nc(CCc2nc(C#N)c(N)o2)oc1N`, the GI50 was inactive: > 10 µM.

For the compound `CC(C)(C)OC(=O)NC(Cc1ccccc1)C(=S)N1CCCC1` (stereo not given), the GI50 was inactive: > 100 µM.

In the case of `Nc1nc(SC/C=C/c2ccccc2)c2[nH]cnc2n1`, the GI50 is inactive: > 100 µM.

With `N#Cc1ccc(C2SCc3nc4ccccc4n32)cc1` (stereo not given), the GI50 was inactive: > 100 µM.

As for `COc1ccc(-c2nc(-c3cnccn3)n(Cc3ccccc3)n2)cc1`, the GI50 was inactive: > 100 µM.

`N#CC(C(=O)CCC(=O)Nc1ccc(Cl)c(Cl)c1)c1ccccc1` (stereo not given): the GI50 is inactive: > 100 µM.

As to `COc1cc(C2c3[nH]c4ccccc4c3[C@@H](Nc3ccc(F)cc3)[C@H]3COC(=O)N23)cc(OC)c1O` (stereo not given in full), the GI50 was inactive: 7.4 µM.

With `CCC(C)C1NC(=O)C(NC(=O)C(CC(C)C)N(C)C(=O)[C@@H]2C=CCN2C(=O)[C@H](C)O)C(C)OC(=O)[C@H](Cc2ccc(OC)cc2)N(C)C(=O)[C@@H]2CCCN2C(=O)[C@H](CC(C)C)NC(=O)C(C)C(=O)[C@H](C(C)C)OC(=O)CC1O` (stereo not given in full), the GI50 is active: 0.00344 µM.

`COc1ccc(/C=C2\CCCCCC2=O)cc1`: the GI50 was inactive: > 100 µM.

With `COC1=C2C=[N+](C)C3C(=C2C=CC1OC)Cc1cc2c(cc13)OCO2` (stereo not given), the GI50 is inactive: 14.7 µM.

Turning to `O=CN/C=C/c1ccccc1O`, the GI50 is inactive: > 100 µM.

Turning to `Nc1ncnc2c1ncn2C1C=C(CO)C(O)C1O` (stereo not given), the GI50 was inactive: 6.44 µM.
